Laboratory results: PubChem BioAssay AID2060347 (Molecular Pharmacology Branch, DTP, NCI, 2025)
Certain results were filed several times, with different values. They are shown here; other results are not. The source may hold further records. The records of an entry are repeated measurements (runs, samples, wells, individuals or studies). Marks such as [2022-09] give the month of the run. Additions like (4×) say how often a value occurs here.

Tested on: 817829-284-R-J1-PDC spheroids with HUVEC/MSC, viability
Test: Anticancer human tumor 817829-284-R-J1-PDC patient-derived colon adenocarcinoma cell line growth inhibition [TAK]
Conditions: for viability, T/C: stronger effect = lower value
Source text: Combinatorial screen of targeted agents with TAK-243 and ipatasertib in multi-cell type tumor spheroids
A high-throughput screen of multi-cell type tumor spheroids was designed to identify active combinations of targeted small molecules and TAK-243 or ipatasertib. Complex spheroids include a stromal component modeled by human endothelial cells (HUVEC) and fibroblasts modeled by human mesenchymal stem cells (MSCs). The concentration ranges selected for each drug and investigational agent were based upon clinically achievable concentrations if the clinical Cmax of the agent was known.
Compounds. The drugs and investigational agents: TAK-243 (785004), ipatasertib (767898), everolimus (733504), selumetinib (741078), bortezomib (756655), trametinib (758246), ixazomib (758254), vemurafenib (761431), dabrafenib (764134), sapanisertib (764658), alpelisib (765974), and copanlisib (816437), were obtained from the National Cancer Institute (NCI) Developmental Therapeutics Program Chemical Repository. The FDA-approved anticancer drug set is available from the NCI Developmental Therapeutics Program. […] The stock solutions were prepared in dimethyl sulfoxide (DMSO, Sigma-Aldrich, St. Louis, MO, cat. D2650) at 800-fold the tested concentration and stored at -70 degrees C prior to their use. All drugs and investigational agents were tested over a range starting from a high concentration at or near the clinical Cmax and decreasing in half-log increments. If the clinical Cmax for an agent had not been determined, the highest concentration tested was 10 microM.
NCI60 Cell Culture. NCI60 cell lines were obtained from the NCI Developmental Therapeutics Program Tumor Repository. For each lot of cells, the Repository performed Applied Biosystems AmpFLSTR Identifiler testing with PCR amplification to confirm consistency with the published Identifier STR profile for each cell line. Cells were kept in continuous culture for no more than 20 passages. The optimal seeding densities for each of the cell lines at each time point assessed were determined prior to performing the concentration response studies. Briefly, the NCI60 human tumor lines were grown as monolayers in RPMI 1640 medium supplemented with 10% FBS and 2 mmol/L L-glutamine.
An additional 2 lines were from the NCI60 cell line panel including melanomas, MALME-3M and SK-MEL-2. Pooled donor human umbilical vein endothelial cells (HUVEC, Lonza, cat. CC-2519) and human mesenchymal stem cells (hMSC, Lonza, cat. PT-2501) were purchased from Lonza (Walkersville, MD). […]
For the pre-screen, cell seeding densities were determined from a titration spanning the range from 5,000 to 313 cells per well. […]

`CC(C)NCC(C(=O)N1CCN(c2ncnc3c2C(C)CC3O)CC1)c1ccc(Cl)cc1` (centres undefined) was tested, and the viability, T/C (compound alone 0.3 µM) was 94.2, 105 (2×), 96, 102, 89.7% [2020-02] and 92.1, 97.2, 90.6, 72.3% [2020-03] and the viability, T/C (compound alone 0.949 µM) was 65.7, 78.9, 76, 70, 76.9, 67.4% [2020-02] and 30.6, 30.3, 31.9, 29.1% [2020-03].

With `CC(C)(C)c1nc(-c2cccc(NS(=O)(=O)c3c(F)cccc3F)c2F)c(-c2ccnc(N)n2)s1` the IC50 (compound alone) was > 10 µM and 760 nM.

In the case of `CC(C)CC(NC(=O)C(Cc1ccccc1)NC(=O)c1cnccn1)B(O)O` (centres undefined), the viability, T/C (compound alone 0.01 µM) is reported as 1.01% and 86.8%.
